# In PMC6919601, “Identification of Plasmodium dipeptidyl aminopeptidase allosteric inhibitors by high throughput screening” (PLoS ONE, 2019):
# Among all 110,000 compounds or so, about 230 (0.21%) showed an effect of 50% or more. The list shows a part of the results.
# Target: DPAP1 (Plasmodium falciparum, UniProt Q8IIJ9)
# Assay: primary screen, percent inhibition; read by cleavage of a fluorogenic dipeptide substrate; higher = more effect of the substance
# Design: species or system P. falciparum D10 trophozoite lysates; single well
# 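Further: 30 min substrate incubation versus DMSO and 10 µM JCP410 controls.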
# Sequence of DPAP1 (Q8IIJ9 whole entry, looked up): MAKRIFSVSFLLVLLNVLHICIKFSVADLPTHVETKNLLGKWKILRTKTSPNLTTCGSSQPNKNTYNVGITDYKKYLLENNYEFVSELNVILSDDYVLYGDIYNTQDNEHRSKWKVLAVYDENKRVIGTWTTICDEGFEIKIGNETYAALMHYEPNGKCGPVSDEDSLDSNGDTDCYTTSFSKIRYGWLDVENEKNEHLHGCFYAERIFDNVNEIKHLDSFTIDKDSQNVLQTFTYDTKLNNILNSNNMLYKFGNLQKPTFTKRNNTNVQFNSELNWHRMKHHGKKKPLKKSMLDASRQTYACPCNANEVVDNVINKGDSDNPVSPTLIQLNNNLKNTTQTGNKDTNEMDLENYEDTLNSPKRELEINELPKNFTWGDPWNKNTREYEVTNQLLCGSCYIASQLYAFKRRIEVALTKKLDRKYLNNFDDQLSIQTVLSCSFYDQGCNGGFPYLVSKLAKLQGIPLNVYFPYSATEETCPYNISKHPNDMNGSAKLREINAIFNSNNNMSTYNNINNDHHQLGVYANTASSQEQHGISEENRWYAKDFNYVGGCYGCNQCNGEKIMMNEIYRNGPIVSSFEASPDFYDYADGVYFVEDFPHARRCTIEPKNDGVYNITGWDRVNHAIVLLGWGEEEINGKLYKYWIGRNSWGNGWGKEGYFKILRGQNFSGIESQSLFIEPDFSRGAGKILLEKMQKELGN
row,SMILES,% Inhibition @ 10 uM
1,O=C(COc1ccc(Br)cc1)Nc1ccc(S(=O)(=O)Nc2ccc(F)cc2)cc1,4.11%
2,Cc1ccc2cc3cc(C(=O)N4CCN(Cc5ccccc5)CC4)sc3nc2c1,3.07%
3,Cc1c(/C=C2/C(=O)NC(=O)N(Cc3ccco3)C2=O)c2ccccc2n1Cc1ccc(F)cc1,3.27%
4,O=C(NCc1ccccc1Cl)C1CCCN1S(=O)(=O)c1cccc2nsnc12 (stereo not shown),-0.465%
5,CCn1c(C(=O)N2CCC(C(=O)NCCC(C)C)CC2)cc2sccc21,92.1%
6,CCN1C(=O)c2cccc3c(NS(=O)(=O)c4ccc(C)cc4)ccc1c23,-8.12%
7,Cc1nc2c(c(C)nn2-c2ccccc2)c(C)c1CCC(=O)N1CCN(c2ccccn2)CC1,-2.45%
8,CCOC(=O)C1=C(C)N(C)C(C)=C(C(=O)OCC)C1c1cccs1,-5.03%
9,COC(=O)c1cc(S(=O)(=O)NCc2ccc3c(c2)OCO3)c[nH]1,5.64%
10,CC1CC2(C)CC(C(=O)O2)C1C(=O)O (stereo not shown),-1.76%
11,CCCCN1C(=O)C2Cc3c([nH]c4ccccc34)C(c3cccc(OC)c3OC)N2C1=O (stereo not shown),-1.8%
12,CSc1ncc(C(=O)NCCc2ccc(Cl)cc2)c(-c2ccccc2)n1,-2.48%
13,COc1ccc(OCc2nn3c(-c4ccncc4)nnc3s2)cc1,13%
14,CCc1nc2c(sc3nc(N4CCOCC4)c4c(c32)CC(C)(C)OC4)c(=O)o1,-4.74%
15,COC(=O)C1=C(C)N=C(C)/C(=C(/O)OC)C1c1ccncc1 (stereo not shown),-2.6%
16,COc1cccc(-c2cc(C(=O)N[C@@H](CC(C)C)C(=O)NCC#N)cc(-c3cccc(OC)c3)c2)c1,0.174%
17,O=C1c2ccccc2C(O)(Cc2ccccc2)N1Cc1ccc2c(c1)OCO2 (stereo not shown),1.62%
18,CCOC(=O)N1CCN(C(=O)c2cc3c(s2)-c2ccccc2SC3)CC1,1.15%
19,COc1cccc(NC(=O)c2ccc3c(c2)C(=O)N(C(C)(C)C)C3=O)c1,-6.39%
20,Cc1nn2c(C(F)(F)F)cc(-c3ccc(Cl)cc3)nc2c1C(=O)NCCCn1ccnc1,-0.67%
21,CC(C)C(=O)Nc1sc2c(c1C#N)CCCCC2,5.59%
22,Cc1c(-c2ccccc2)nn2c(O)c3c(nc12)CCC3,-0.274%

row,SMILES,% Inhibition @ 10 uM
1,Cc1ccc(C(=O)N/C(=C\c2ccco2)C(=O)N2CCC(C(N)=O)CC2)cc1C,0.777%
2,COc1ccc(-c2nc3n(n2)C(c2ccccc2F)C(C(N)=O)=C(C)N3)cc1OC (stereo not shown),0.275%
3,CCOc1ccc(-c2cnc(S)nc2N)cc1,-1.2%
4,Cc1cc(F)c(F)cc1C(=O)Cn1cncn1,-3.74%
5,COc1ccc(N2CCN(C(=O)C3CCCCC3)CC2)cc1,-6.64%
6,Clc1nc(-c2cccnc2)nc2ccccc12,-2.35%
7,O=C(O)c1ccc(Oc2ccc(Oc3ccc(C(=O)O)cc3)cc2)cc1,-4.02%
8,Cc1cc(O)nc2cc(-c3ccccc3)nn12,-4.39%
9,C=Cc1ccc(Cn2c(C(=O)O)c(CNCCc3ccc(OC)c(OC)c3)c3ccccc32)cc1,0.277%
10,Cc1cc(C)c(C#N)c(S)n1,89.9%
11,O=C(NCCc1ccncc1)N1CCOCC1,-1.85%
12,c1ccc2oc(-c3nn4c(-c5ccncc5)nnc4s3)cc2c1,8.94%
13,O=C(COc1ccccc1)N(Cc1ccccc1)c1cccc([N+](=O)[O-])c1,0.035%
14,CCn1c2ccccc2c2cc(CN3CCC(C)CC3)ccc21,-0.0494%
15,Cc1cc(C)n(C2CC(=O)N(c3ccccc3)C2=O)n1 (stereo not shown),5.25%
16,CC(=O)c1cccc(N2CC(C(=O)O)CC2=O)c1 (stereo not shown),0.161%
17,C=CCN(Cc1nc(-c2cccc(C)c2)no1)C(=O)NCCC,1.67%
18,N#Cc1c(SCC(=O)Nc2nccs2)nsc1SCC(=O)Nc1nccs1,3.25%
19,Cc1ccc(CNC(=O)CNC(=S)N(Cc2ccccc2)Cc2cccnc2)cc1,-0.406%
20,COc1ccc(OCCn2cc(C=C3C(=O)NC(=O)NC3=O)c3ccccc32)cc1,13.3%
21,Cc1cc(C=C2C(=O)NC(=O)NC2=O)c(C)n1-c1ccc(N(C)C)cc1,-4.8%
22,O=C(Nc1cccc(-c2nc3cc(Cl)ccc3o2)c1)c1ccc(Cl)cc1,4.16%

row,SMILES,% Inhibition @ 10 uM
1,O=C(CSC1CC(=O)N(c2ccc(C(=O)O)cc2)C1=O)Nc1ccc2ccccc2c1 (stereo not shown),-5.79%
2,COc1ccc(Nc2nc(-c3ccncc3)cs2)cc1,-4.98%
3,Cc1onc(-c2c(Cl)cccc2Cl)c1C(=O)N1CCCCCC1,0.177%
4,CC(=O)CCS(=O)(=O)c1c(C)c(C)cc(C)c1C,2.33%
5,O=C(CCC1CCCCC1)N1CCN(c2ccccc2F)CC1,-3.24%
6,CC(C)CCNC(=O)C1CCN(c2cnccn2)CC1,-2.71%
7,CCOC(=O)c1csc(CCN)n1,-3.8%
8,CCCO/C(O)=C1\C(C)=NC2=C(C(=O)CC(C)(C)C2)C1c1cccc(Cl)c1Cl (stereo not shown),-5.44%
9,CC(C)C[C@H](NC(=O)c1cc(Br)c(Br)s1)C(=O)NCC#N,-4.72%
10,CSC1=C(C#N)C(c2ccc3c(c2)OCO3)C2=C(O)CCCC2=N1 (stereo not shown),-1.26%
11,O=C(O)CNC(=O)/C(=C/c1ccc2c(c1)OCO2)NC(=O)c1ccco1,-4.41%
12,O=C(NC1CCSC1=O)c1cccs1 (stereo not shown),3.27%
13,COc1ccc(S(=O)(=O)N2CCC(NC(=O)N3CCCC3)CC2)cc1,3.69%
14,c1ccc(CSc2ncnc3c2oc2ccccc23)cc1,-3.21%
15,C[C@@H](C[C@H](NC(=O)c1ccc(-c2cc(C(=O)O)ccc2Cl)cc1)C(=O)NCC#N)c1ccccc1,15.8%
16,CN(C)C(=O)COC(c1ccccc1)(c1ccccc1)c1ccccc1,-8.88%
17,COc1cc(C(=O)n2nc(N)c3cc4ccc(C)cc4nc32)cc(OC)c1OC,3.2%
18,Cn1ncc2c1ncn1nc(-c3ccccc3Cl)nc21,-4.19%
19,O=C(Nc1ccc(S(=O)(=O)N2CCCCC2)cc1)C(F)(F)F,-7.34%
20,COCCNC(=O)c1cnn2c(C(F)(F)F)cc(-c3ccc4c(c3)OCO4)nc12,-2.29%
